# Assay results taken from PMC4336329 (PLoS ONE, 2015).
# The whole screen tested about 310,000 compounds, of which about 14,000 (4.5%) showed an effect of 50% or more. Effects have a minus sign here. This is one part of the list.
# Target: human ether-à-go-go-related gene (hERG) potassium channel (human, UniProt Q12809)
# Assay: primary screen, population patch clamp on CHO cells stably expressing hERG
# 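Further: peak tail current of the secondary pulse compared with the same well before compound.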
# Chain of human ether-à-go-go-related gene (hERG) potassium channel (Q12809 whole entry, looked up): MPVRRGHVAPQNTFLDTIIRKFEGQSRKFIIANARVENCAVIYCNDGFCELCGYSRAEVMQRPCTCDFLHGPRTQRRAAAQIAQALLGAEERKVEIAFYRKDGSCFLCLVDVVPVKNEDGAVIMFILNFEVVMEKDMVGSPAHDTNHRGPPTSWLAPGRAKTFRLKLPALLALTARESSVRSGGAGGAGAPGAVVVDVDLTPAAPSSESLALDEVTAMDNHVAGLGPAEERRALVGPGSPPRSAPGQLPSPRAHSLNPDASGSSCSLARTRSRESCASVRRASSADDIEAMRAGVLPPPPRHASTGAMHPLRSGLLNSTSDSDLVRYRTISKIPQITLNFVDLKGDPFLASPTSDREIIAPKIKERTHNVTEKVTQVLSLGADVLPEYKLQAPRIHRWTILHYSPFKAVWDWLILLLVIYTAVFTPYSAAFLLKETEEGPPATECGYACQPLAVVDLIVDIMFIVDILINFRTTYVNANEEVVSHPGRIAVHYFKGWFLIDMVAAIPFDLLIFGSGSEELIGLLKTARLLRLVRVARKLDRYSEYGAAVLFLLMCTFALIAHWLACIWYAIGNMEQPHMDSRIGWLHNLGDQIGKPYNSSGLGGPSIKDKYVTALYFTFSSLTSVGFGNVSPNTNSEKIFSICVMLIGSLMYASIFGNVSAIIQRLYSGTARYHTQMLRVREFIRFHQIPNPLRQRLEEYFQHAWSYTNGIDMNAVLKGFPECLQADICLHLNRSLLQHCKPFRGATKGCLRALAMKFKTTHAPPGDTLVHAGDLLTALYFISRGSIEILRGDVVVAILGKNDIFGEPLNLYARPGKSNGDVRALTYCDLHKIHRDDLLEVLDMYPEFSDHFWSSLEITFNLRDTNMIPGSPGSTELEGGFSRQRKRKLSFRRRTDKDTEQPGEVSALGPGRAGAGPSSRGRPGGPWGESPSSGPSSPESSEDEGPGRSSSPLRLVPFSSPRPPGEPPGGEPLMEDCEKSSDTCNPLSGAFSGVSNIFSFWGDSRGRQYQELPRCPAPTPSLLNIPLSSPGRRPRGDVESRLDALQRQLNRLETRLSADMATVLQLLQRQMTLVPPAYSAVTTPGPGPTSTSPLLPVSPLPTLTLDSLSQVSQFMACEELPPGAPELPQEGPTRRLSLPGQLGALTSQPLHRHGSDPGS
row,SMILES,"hERG current change (%, negative = inhibition) at 10uM"
1,COc1ccc(-n2ncc3c2CC(C)(C)CC3NC(=O)CCN2CCCCC2=O)cc1 (stereo not drawn),-13.9%
2,COc1ccc(N2C(=O)CC(N3CCCCC3)C2=O)cc1 (stereo not drawn),18.6%
3,CCc1cccc(N=c2c([N+](=O)[O-])nn(-c3ccc4c(c3)OCCO4)n2O)c1,1.64%
4,O=c1cc(C(F)(F)F)nc(-c2ccccc2)[nH]1,12%
5,N#CCC(=O)Nc1ccc(C(=O)OCC(=O)c2ccc3c(c2)OCO3)cc1,9.45%
6,O=C(NCCc1ccccc1)C1CCN(S(=O)(=O)N2CCCCCC2)CC1,-11.9%
7,Cn1cc(CN(CCCN2CCOCC2)C(=S)Nc2cccc(Cl)c2)c2ccccc21,-21.3%
8,CCOC(=O)n1c(=O)n(Cc2ccc(Cl)cc2Cl)c2ccccc21,-3.22%
9,Cc1c(NC(=O)c2c([N+](=O)[O-])cnn2C)c(=O)n(-c2ccccc2)n1C,-25.2%
10,O=c1cnnc(Nc2ccccc2)[nH]1,21.1%
11,O=C(NC(=O)c1cccc(OC(F)(F)C(F)F)c1)OC1CCS(=O)(=O)C1 (stereo not drawn),-4.68%
12,CCOc1cccc(C(=O)Nc2cccc(C(C)=O)c2)c1,4.26%
13,COc1cc(NC(=O)CCCNC(=O)c2ccc(Cl)cc2)cc(OC)c1,-3.41%
14,O=C(NCCCn1ccnc1)C(=O)NCC1OCCN1S(=O)(=O)c1ccc2c(c1)OCCO2 (stereo not drawn),5.29%
15,CCn1c(CNC(=O)Cc2ccc(OC)cc2)n[nH]c1=S,22.9%
16,Cc1cccc(NC(=O)C2Cc3ccccc3CN2C(=O)OCc2ccccc2)c1C (stereo not drawn),-7.91%
17,O=C(NCc1ccco1)c1ccc(Cn2c(=O)c3sccc3n(Cc3cccc(F)c3)c2=O)cc1,11.2%
18,CN(CCc1ccccn1)C(=O)Nc1cccc(Cl)c1,3.98%
19,CC(CCc1ccc(O)cc1)NCCC(c1ccccc1)c1ccccc1 (stereo not drawn),-76.1%
20,COc1cc2c(cc1OC)CN(Cc1cc(OC)c(O)c(OC)c1)CC2,-14%
21,Cc1[nH]c(=O)[nH]c(=O)c1/C=N/NC(=O)[C@H](C)N.Cl,17.9%
22,Cc1cc([N+](=O)[O-])ccc1NC(=O)CN1C2CCC1CC(NC(=O)NC13CC4CC(CC(C4)C1)C3)C2 (stereo not drawn),-14.9%
23,COc1cc(NC(=S)NCc2cccnc2)cc(OC)c1,-4.94%

row,SMILES,"hERG current change (%, negative = inhibition) at 10uM"
1,CCCn1c(C)cs/c1=N\C(=S)Nc1ccccc1,12.8%
2,Cc1ccc(S(=O)(=O)Nc2ccc3c(c2)nc(CCN2CCCCC2)n3C)cc1,-63.6%
3,Fc1ccc(OCCCCCN2CCCC2)cc1,4.62%
4,c1ccc(COc2cccc(CN3CCN(c4ccccn4)CC3)c2)cc1,-10.1%
5,O=C(CSc1nc2c(cnn2-c2cccc(Cl)c2)c(=O)[nH]1)NCCC1=CCCCC1,-16.7%
6,COc1ccc(OC)c(NC(=O)COc2ccc(S(=O)(=O)NC(C)C)cc2)c1,-10.4%
7,COc1cnn(-c2ccccc2)c(=O)c1SCc1ccc(Cl)c(Cl)c1,-21.1%
8,COc1ccc(Cl)cc1C(=O)NNC(=O)COC(=O)CCN=C1NS(=O)(=O)c2ccccc21,-7.54%
9,O=C(NNC1CC(=O)N(c2ccc3c(c2)OCCO3)C1=O)c1ccc(Cl)cc1 (stereo not drawn),10.1%
10,CCC(C(=O)Nc1ccccn1)c1ccccc1 (stereo not drawn),1.4%
11,CSc1ccc(C(=O)C2CCCN(C(=O)c3nonc3C)C2)cc1 (stereo not drawn),-27.5%
12,O=C1C=C(c2ccc3cc[nH]c3c2)C[C@@H](c2ccc3c(c2)OCO3)C1,7.03%
13,CSc1cccc(NC(=S)N2CCCN(Cc3cccc(Cl)c3)C2)c1,-0.256%
14,O=C(NCc1cccnc1)c1nc(-c2ccc(C(F)(F)F)cc2)no1,-45.5%
15,CCOc1ccc(N(CC(=O)Nc2cc(OC)cc(OC)c2)S(=O)(=O)c2c(C)[nH]c(=O)[nH]c2=O)cc1,20%
16,CC(=O)n1cc(CO)c2ccccc21,9.03%
17,Cc1[nH]c2ccc(C(=O)NCCCN3CCCCC3)cc2c1C,-10.2%
18,CCOC(=O)CSc1nnc(CNC(=O)Cc2ccccc2)n1-c1ccccc1OC,-2.02%
19,O=C1C2CCCN2C(=O)N1CCCCN1CCN(CCO)CC1 (stereo not drawn),-14.9%
20,COc1ccc(-c2cc3ccc(O)cc3oc2=O)cc1,12.4%
21,Cc1ccsc1/C=N/n1c(-c2cccnc2)n[nH]c1=S,27.1%
22,CC(=O)Nc1ccc2c(c1)OCCO2,-0.459%
